# Some of the results follow. The full chains were built here from the parent and the listed change. Inactive controls read about 0.05.
# B1: TEV protease; numbered along this chain (parent)
# chain: MGESLFKGPRDYNPISSSICHLTNESDGHTTSLYGIGFGPFIITNKHLFRRNNGTLVVQSLHGVFKVKDTTTLQQHLVDGRDMIIIRMPKDFPPFPQKLKFREPQREERICLVTTNFQTKSMSSMVSDTSCTFPSGDGIFWKHWIQTKDGQCGSPLVSTRDGFIVGIHSASNFTNTNNYFTSVPKNFMELLTNQEAQQWVSGWRLNADSVLWGGHKVFMVKPEEPFQPVKEATQL
# Variants of: B1
# Experiment: raw area under fraction-flipped curve 0-4 h after induction (AUC4h, not background-subtracted), DNA-recorder readout of cleavage of the substrate (dimensionless); higher = more cleavage of the substrate by the protease variant
# Conditions: temperature: 34 °C; time window: 0-4 h after rhamnose induction
# Protocol: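 In vivo DNA recorder in E. coli TOP10(DE3) ΔrhaA at 34 °C. Each TEVp single-site mutant (parent TEVp 0) is paired with a single-site variant of the 7-mer TEVs (canonical ENLYFQ|S). The substrate sits between flexible linkers in a Bxb1-sfGFP-TEVs-SsrA fusion, so cleavage stabilises Bxb1 and speeds flipping of a recombination array, read by NGS. The value is the raw area under the fraction-flipped curve over 0-4 h after rhamnose induction (AUC4h), with ≥20 reads per time point. It is not background-subtracted; inactive controls average about 0.047.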
# 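Note: Bxb1 expression induced with 0.2% (w/v) L-rhamnose at OD600 near 0.5, cultures sampled hourly, flipped fraction per protease–substrate barcode pair counted by paired-end Illumina sequencing.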
Variant,area with substrate ENAYFQS,area with substrate ENDYFQS,area with substrate ENPYFQS,area with substrate ENSYFQS,area with substrate ENCYFQS,area with substrate ENEYFQS,area with substrate ENFYFQS,area with substrate ENGYFQS,area with substrate ENHYFQS,area with substrate ENIYFQS,area with substrate ENKYFQS,area with substrate ENMYFQS,area with substrate ENNYFQS,area with substrate ENQYFQS,area with substrate ENRYFQS,area with substrate ENTYFQS,area with substrate ENVYFQS,area with substrate ENWYFQS,area with substrate ENYYFQS
MGESLFKGPRDYNPISSSICHLTNESDGHTTSLYGIGFGPFIITNKHLFRRNNGTLVEQSLHGVFKVKDTTTLQQHLVDGRDMIIIRMPKDFPPFPQKLKFREPQREERICLVTTNFQTKSMSSMVSDTSCTFPSGDGIFWKHWIQTKDGQCGSPLVSTRDGFIVGIHSASNFTNTNNYFTSVPKNFMELLTNQEAQQWVSGWRLNADSVLWGGHKVFMVKPEEPFQPVKEATQL [V58E],0.0329,0.0483,0.0693,0.0281,–,–,–,–,–,–,–,–,–,–,–,–,–,–,–
MGESLFKGPRDYNPISSSICHLTNESDGHTTSLYGIGFGPFIITNKHLFRRNNGTLVVQALHGVFKVKDTTTLQQHLVDGRDMIIIRMPKDFPPFPQKLKFREPQREERICLVTTNFQTKSMSSMVSDTSCTFPSGDGIFWKHWIQTKDGQCGSPLVSTRDGFIVGIHSASNFTNTNNYFTSVPKNFMELLTNQEAQQWVSGWRLNADSVLWGGHKVFMVKPEEPFQPVKEATQL [S60A],0.0627,0.0618,0.0564,0.0606,0.0607,0.0554,0.0573,0.0556,0.0629,0.0939,0.0653,0.106,0.0778,0.0741,0.0683,0.0508,0.0648,0.004,0.0633
MGESLFKGPRDYNPISSSICHLTNESDGHTTSLYGIGFGPFIITNKHLFRRNNGTLDVQSLHGVFKVKDTTTLQQHLVDGRDMIIIRMPKDFPPFPQKLKFREPQREERICLVTTNFQTKSMSSMVSDTSCTFPSGDGIFWKHWIQTKDGQCGSPLVSTRDGFIVGIHSASNFTNTNNYFTSVPKNFMELLTNQEAQQWVSGWRLNADSVLWGGHKVFMVKPEEPFQPVKEATQL [V57D],0.0577,0.0673,0.0474,0.0566,0.0748,0.0562,0.0545,0.0561,0.0597,–,0.0692,–,0.058,0.0538,–,0.0637,0.0839,0.0036,–
MGESLFKGPRDYNPISSSICHLTNESDGHTTSLYGIGFGPFIITNKHLFRRNNGTLCVQSLHGVFKVKDTTTLQQHLVDGRDMIIIRMPKDFPPFPQKLKFREPQREERICLVTTNFQTKSMSSMVSDTSCTFPSGDGIFWKHWIQTKDGQCGSPLVSTRDGFIVGIHSASNFTNTNNYFTSVPKNFMELLTNQEAQQWVSGWRLNADSVLWGGHKVFMVKPEEPFQPVKEATQL [V57C],0.0525,0.0627,–,0.0642,–,0.0624,0.0619,0.0485,0.0659,–,0.0637,–,0.0682,0.0582,0.0515,0.062,0.0752,–,0.0556
MGESLFKGPRDYNPISSSICHLTNESDGHTTSLYGIGFGPFIITNKHLFRRNNGTLAVQSLHGVFKVKDTTTLQQHLVDGRDMIIIRMPKDFPPFPQKLKFREPQREERICLVTTNFQTKSMSSMVSDTSCTFPSGDGIFWKHWIQTKDGQCGSPLVSTRDGFIVGIHSASNFTNTNNYFTSVPKNFMELLTNQEAQQWVSGWRLNADSVLWGGHKVFMVKPEEPFQPVKEATQL [V57A],0.0562,0.0431,0.0572,–,–,0.0575,0.0507,0.0576,–,0.0794,–,–,0.0512,0.0378,–,–,0.0662,0.0627,–
MGESLFKGPRDYNPISSSICHLTNESDGHTTSLYGIGFGPFIITNKHLFRRNNGTLVVASLHGVFKVKDTTTLQQHLVDGRDMIIIRMPKDFPPFPQKLKFREPQREERICLVTTNFQTKSMSSMVSDTSCTFPSGDGIFWKHWIQTKDGQCGSPLVSTRDGFIVGIHSASNFTNTNNYFTSVPKNFMELLTNQEAQQWVSGWRLNADSVLWGGHKVFMVKPEEPFQPVKEATQL [Q59A],0.0578,0.0488,–,0.0678,–,–,–,0.0523,–,–,0.0569,–,0.0575,–,–,0.0686,–,–,–
MGESLFKGPRDYNPISSSICHLTNESDGHTTSLYGIGFGPFIITNKHLFRRNNGHLVVQSLHGVFKVKDTTTLQQHLVDGRDMIIIRMPKDFPPFPQKLKFREPQREERICLVTTNFQTKSMSSMVSDTSCTFPSGDGIFWKHWIQTKDGQCGSPLVSTRDGFIVGIHSASNFTNTNNYFTSVPKNFMELLTNQEAQQWVSGWRLNADSVLWGGHKVFMVKPEEPFQPVKEATQL [T55H],0.065,0.0625,0.0946,–,0.0876,–,–,0.0634,0.0693,–,0.0606,–,0.0368,0.0612,0.0543,–,0.0843,–,0.0619
MGESLFKGPRDYNPISSSICHLTNESDGHTTSLYGIGFGPFIITNKHLFRRNNGKLVVQSLHGVFKVKDTTTLQQHLVDGRDMIIIRMPKDFPPFPQKLKFREPQREERICLVTTNFQTKSMSSMVSDTSCTFPSGDGIFWKHWIQTKDGQCGSPLVSTRDGFIVGIHSASNFTNTNNYFTSVPKNFMELLTNQEAQQWVSGWRLNADSVLWGGHKVFMVKPEEPFQPVKEATQL [T55K],0.0574,0.0596,–,0.0475,0.0651,0.0589,0.0695,0.062,0.0518,0.0928,–,–,–,0.0573,0.0607,–,0.0745,0.0422,–
MGESLFKGPRDYNPISSSICHLTNESDGHTTSLYGIGFGPFIITNKHLFRRNNDTLVVQSLHGVFKVKDTTTLQQHLVDGRDMIIIRMPKDFPPFPQKLKFREPQREERICLVTTNFQTKSMSSMVSDTSCTFPSGDGIFWKHWIQTKDGQCGSPLVSTRDGFIVGIHSASNFTNTNNYFTSVPKNFMELLTNQEAQQWVSGWRLNADSVLWGGHKVFMVKPEEPFQPVKEATQL [G54D],0.0619,0.067,0.0766,0.06,0.062,0.0561,0.058,0.0653,0.0591,0.0622,0.027,–,0.065,0.0543,0.0703,0.0662,0.0593,–,0.0215
MGESLFKGPRDYNPISSSICHLTNESDGHTTSLYGIGFGPFIITNKHLFRRNNFTLVVQSLHGVFKVKDTTTLQQHLVDGRDMIIIRMPKDFPPFPQKLKFREPQREERICLVTTNFQTKSMSSMVSDTSCTFPSGDGIFWKHWIQTKDGQCGSPLVSTRDGFIVGIHSASNFTNTNNYFTSVPKNFMELLTNQEAQQWVSGWRLNADSVLWGGHKVFMVKPEEPFQPVKEATQL [G54F],0.065,0.0561,0.0533,–,0.0618,–,0.0512,0.0634,–,–,0.0546,0.0611,0.063,0.0657,–,0.0751,0.0498,0.0224,–
MGESLFKGPRDYNPISSSICHLTNESDGHTTSLYGIGFGPFIITNKHLSRRNNGTLVVQSLHGVFKVKDTTTLQQHLVDGRDMIIIRMPKDFPPFPQKLKFREPQREERICLVTTNFQTKSMSSMVSDTSCTFPSGDGIFWKHWIQTKDGQCGSPLVSTRDGFIVGIHSASNFTNTNNYFTSVPKNFMELLTNQEAQQWVSGWRLNADSVLWGGHKVFMVKPEEPFQPVKEATQL [F49S],0.0626,0.0561,–,0.06,0.0667,0.0556,0.0523,–,–,0.053,0.0694,0.0705,0.0636,0.0739,0.0553,–,0.0495,0.0378,–
MGESLFKGPRDYNPISSSICHLTNESDGHTTSLYGIGFGPFIITNKHLFQRNNGTLVVQSLHGVFKVKDTTTLQQHLVDGRDMIIIRMPKDFPPFPQKLKFREPQREERICLVTTNFQTKSMSSMVSDTSCTFPSGDGIFWKHWIQTKDGQCGSPLVSTRDGFIVGIHSASNFTNTNNYFTSVPKNFMELLTNQEAQQWVSGWRLNADSVLWGGHKVFMVKPEEPFQPVKEATQL [R50Q],0.0971,–,–,–,0.0946,–,0.0791,0.0578,–,0.11,0.0678,–,0.0671,0.067,0.058,–,–,–,0.0704
MGESLFKGPRDYNPISSSICHLTNESDGHTTSLYGIGFGPFIITNKHLFVRNNGTLVVQSLHGVFKVKDTTTLQQHLVDGRDMIIIRMPKDFPPFPQKLKFREPQREERICLVTTNFQTKSMSSMVSDTSCTFPSGDGIFWKHWIQTKDGQCGSPLVSTRDGFIVGIHSASNFTNTNNYFTSVPKNFMELLTNQEAQQWVSGWRLNADSVLWGGHKVFMVKPEEPFQPVKEATQL [R50V],0.0417,0.0602,0.0426,0.0618,0.0752,0.0625,–,0.0685,0.064,0.122,0.0696,0.0963,0.0474,0.0541,0.0622,0.0758,0.131,–,0.0554
MGESLFKGPRDYNPISSSICHLTNESDGHTTSLYGIGFGPFIITNKHLFFRNNGTLVVQSLHGVFKVKDTTTLQQHLVDGRDMIIIRMPKDFPPFPQKLKFREPQREERICLVTTNFQTKSMSSMVSDTSCTFPSGDGIFWKHWIQTKDGQCGSPLVSTRDGFIVGIHSASNFTNTNNYFTSVPKNFMELLTNQEAQQWVSGWRLNADSVLWGGHKVFMVKPEEPFQPVKEATQL [R50F],0.0869,0.0432,0.0498,0.0559,–,0.0545,–,0.071,–,–,0.0483,–,0.0673,0.0293,0.0579,0.0733,–,–,0.0823
MGESLFKGPRDYNPISSSICHLTNESDGHTTSLYGIGFGPFIITNKHLFRRNNGTLVVQSLHCVFKVKDTTTLQQHLVDGRDMIIIRMPKDFPPFPQKLKFREPQREERICLVTTNFQTKSMSSMVSDTSCTFPSGDGIFWKHWIQTKDGQCGSPLVSTRDGFIVGIHSASNFTNTNNYFTSVPKNFMELLTNQEAQQWVSGWRLNADSVLWGGHKVFMVKPEEPFQPVKEATQL [G63C],0.0629,0.0557,0.0436,0.0659,0.0713,0.0508,0.0561,–,0.0679,0.093,–,0.0566,0.0945,–,0.0548,0.0649,0.0803,–,0.0376
MGESLFKGPRDYNPISSSICHLTNESDGHTTSLYGIGFGPFIITNKHLFRRNNGTLVVQSLHVVFKVKDTTTLQQHLVDGRDMIIIRMPKDFPPFPQKLKFREPQREERICLVTTNFQTKSMSSMVSDTSCTFPSGDGIFWKHWIQTKDGQCGSPLVSTRDGFIVGIHSASNFTNTNNYFTSVPKNFMELLTNQEAQQWVSGWRLNADSVLWGGHKVFMVKPEEPFQPVKEATQL [G63V],0.0683,0.0768,0.0802,–,0.0472,0.0568,0.0526,0.0597,0.0567,–,0.0778,0.101,0.0515,0.0498,–,0.0553,0.0687,–,0.0612
MGESLFKGPRDYNPISSSICHLTNESDGHTTSLYGIGFGPFIITNKHLFRRNNGTLVVQSQHGVFKVKDTTTLQQHLVDGRDMIIIRMPKDFPPFPQKLKFREPQREERICLVTTNFQTKSMSSMVSDTSCTFPSGDGIFWKHWIQTKDGQCGSPLVSTRDGFIVGIHSASNFTNTNNYFTSVPKNFMELLTNQEAQQWVSGWRLNADSVLWGGHKVFMVKPEEPFQPVKEATQL [L61Q],0.0505,–,0.0663,0.0536,–,0.0626,0.0638,–,0.0597,–,–,0.107,0.0566,0.053,0.086,–,–,0.0291,0.0726
MGESLFKGPRDYNPISSSICHLTNESDGHTTSLYGIGFGPFIITNKHLFRRNNGTLVVQSSHGVFKVKDTTTLQQHLVDGRDMIIIRMPKDFPPFPQKLKFREPQREERICLVTTNFQTKSMSSMVSDTSCTFPSGDGIFWKHWIQTKDGQCGSPLVSTRDGFIVGIHSASNFTNTNNYFTSVPKNFMELLTNQEAQQWVSGWRLNADSVLWGGHKVFMVKPEEPFQPVKEATQL [L61S],0.0706,–,–,–,0.069,0.0617,0.0599,0.0643,–,–,–,–,0.0708,0.0598,0.0578,–,–,–,0.0644

# From the supplement of paper PMC12217912
